Patent US20170281742A1 (published 2017)

Columns and labels:
[1] = target: T1, H3.3 wild type (non-mutant) peptide on HLA-A*02:01 (human); test: killing
T1 peptide: RKSAPSTGGV

[2] = target: T2, H3.1 K27M (Mut H3.1); same residues as the A6 peptide of the alanine scan peptide on HLA-A*02:01 (human); test: cytokine release
T2 peptide: RMSAPATGGV

[3] = target: T3, H3.3 K27M epitope, alanine at position 3 (A3) peptide on HLA-A*02:01 (human); test: cytokine release
T3 peptide: RMAAPSTGGV

[4] = target: T4, H3.3 K27M epitope, alanine at position 5 (A5) peptide on HLA-A*02:01 (human); test: cytokine release
T4 peptide: RMSAASTGGV

B1: H3.3.K27M-specific TCR from CTL clone 1H5 (TCR, V domains shown)
Valpha: AQKVTQAQTEISVVEKEDVTLDCVYETRDTTYYLFWYKQPPSGELVFLIRRNSFDEQNEISGRYSWNFQKSTSSFNFTITASQVVDSAVYFCALSEENDMRFGAGTRLTVKP
Vbeta: EAQVTQNPRYLITVTGKKLTVTCSQNMNHEYMSWYRQDPGLGLRQIYYSMNVEVTDKGDVPEGYKVSRKEKRNFPLILESPNPNQTSLYFCASGWGGPFYEQYFGPGTRLTVT
[1]
  binding result: no recognition
[2]
  binding result: no recognition
[3]
  binding result: recognises
[4]
  binding result: recognises
